This note sets out measurements from PMC10668032.

The other results are listed elsewhere or left out. At the low end of the ranking the order means little.

For this assay, the target named is SIX1 homeodomain (reference allele) (UniProt Q15475). The assay can be described thus: universal protein binding microarray. Conditions: Universal all-10-mer PBM (8x60K, AMADID 030236), 300 nM GST-tagged protein, Alexa Fluor 488 anti-GST; buffer, salt, pH and temperature not stated; high values mean tight binding; most listed sequences are background and not binding sites; double strand, one strand shown.
On to GTTGCAGA, for which the binding signal was -0.102 E-score. With GAGTAAGA the figure was -0.008 E-score; with AGGGAAGA, -0.154 E-score.

With CCAACATA, the binding signal came to 0.134 E-score. The same measure for AGGTATCG: 0.478 E-score. The same measure for CCCTGGGC: -0.16 E-score. The same measure for CCAATACA: 0.0364 E-score; for CTGCGCGA: 0.0419 E-score.

In the case of GCGAACTA, the binding signal came out at 0.0727 E-score. The same measure for CTAAGCTC: -0.123 E-score; for CGCTAATA: -0.0101 E-score.

With AGAGGAAT, the binding signal came to 0.0744 E-score. With TAAGATAA the figure was 0.0806 E-score. With CGGGGTAA the figure was 0.128 E-score. With GAGCCACC the figure was 0.041 E-score.

GTGGGCCA: the binding signal was -0.215 E-score. The same measure for AATTGCTA: 0.0458 E-score.

Consider ACTCGATA, for which the binding signal came out at 0.303 E-score. With AAGTAACT the figure was -0.298 E-score; with GACTCGAA, -0.108 E-score. As to CTTCTCGC, the binding signal came out at 0.136 E-score. AATAAGTG: the binding signal was -0.0784 E-score. With CACCACAA the figure was 0.0182 E-score; with AGAGACTA, -0.217 E-score; with CGCACGCG, -0.22 E-score. The same measure for AGACTCTG: 0.0115 E-score; for AATGGCCT: -0.22 E-score. As to GTCAACCA, the binding signal was -0.261 E-score. With CCTAATGC the figure was -0.07 E-score; with GCCTCGGA, -0.0286 E-score; with TGTCCACA, -0.033 E-score. The same measure for CCTATGAA: -0.059 E-score; for GTGGACTA: 0.0435 E-score. With CAGATTGC the figure was -0.11 E-score.

On to ACCTGAAC, for which the binding signal was -0.162 E-score. With GTCAGAGA the figure was -0.0691 E-score; with ACCGCCAA, -0.0246 E-score; with TGATGACA, -0.0474 E-score. With GATTTAGA, the binding signal is 0.0717 E-score. The same measure for TCCTACAA: 0.0631 E-score; for CTACTAAC: 0.0528 E-score. CTACAATA: the binding signal was determined as 0.241 E-score. The same measure for TAAAGGGA: -0.0716 E-score.

Take GCAACTAC: the binding signal was -0.183 E-score. The same measure for TTACCGAA: -0.0115 E-score; for ACGCTAGA: -0.0662 E-score; for GCACGTGC: -0.183 E-score. With CGGTCTGC the figure was -0.105 E-score. With CATTGGTA the figure was -0.0532 E-score; with GACCCGTA, 0.0888 E-score. As to ATTGTGCA, the binding signal is -0.0103 E-score. As to CATTAGCC, the binding signal is -0.135 E-score.

Turning to CCTTCACG, the binding signal was 0.0243 E-score.

Regarding CCAATCAG, the binding signal was -0.145 E-score.

On to AGGCCGAA, for which the binding signal was -0.177 E-score.

For the sequence GCGTTAAC, the binding signal was -0.0738 E-score. With CGAGGCCG the figure was -0.183 E-score; with ATGGATTC, 0.0729 E-score. With GGCTTACC the figure was -0.0836 E-score; with ACCTTCAC, 0.101 E-score. With ATATATTC the figure was 0.279 E-score; with CCTCGTCG, -0.0556 E-score. As to CATTTGAC, the binding signal was -0.212 E-score. With GCAGCGCA the figure was -0.141 E-score. The same measure for ATTATCGC: 0.148 E-score; for CGCACTCC: -0.219 E-score; for ACGGCGGA: -0.069 E-score. As for CGGAGCCA, the binding signal is -0.0825 E-score.

In the case of GACAGGCA, the binding signal was -0.176 E-score. Turning to CAGTATTA, the binding signal worked out at 0.295 E-score.

Take ATAATTCG: the binding signal worked out at 0.0379 E-score. With CAGTCAGC the figure was -0.152 E-score; with CCCGCAAG, -0.167 E-score; with ATAACCGG, 0.0341 E-score. Regarding ACGTATTG, the binding signal is 0.211 E-score. The same measure for TATGCCAA: 0.166 E-score; for ATCATTAA: 0.228 E-score; for CCGCTATC: 0.304 E-score. For the sequence CCTATTGC, the binding signal was 0.0959 E-score. The same measure for CCCCGCAG: -0.0265 E-score; for AACCAGTT: -0.00702 E-score. With CAGGTAGA the figure was 0.15 E-score. Regarding GGTTTCAA, the binding signal was determined as 0.0417 E-score.

Take CCCTCGAC: the binding signal was 0.182 E-score.

In the case of AATAACTC, the binding signal was -0.0333 E-score. The same measure for ACTCGTAC: -0.0432 E-score; for CAGGTGTC: 0.394 E-score; for CTCGCGTA: 0.0411 E-score.

On to ACCAGATA, for which the binding signal is 0.339 E-score. With ATGGTACC the figure was -0.129 E-score. With CGAGGTTC the figure was 0.00267 E-score; with ATAGAGGC, -0.17 E-score. On to ATTGTACA, for which the binding signal is -0.135 E-score.

Regarding AGTGGTTA, the binding signal is 0.148 E-score. The same measure for GGCCATAC: 0.0313 E-score; for AGATCTCG: 0.214 E-score; for CGATAACA: 0.16 E-score.

Turning to AGAGGCGG, the binding signal was determined as 0.0228 E-score. With GCGAATTA the figure was -0.196 E-score. With AGCTTAAT the figure was -0.00192 E-score; with CTTATATA, 0.15 E-score. With AGCATTAT the figure was -0.0561 E-score; with ACACGCCG, 0.028 E-score.

CACGTGTA: the binding signal was -0.0559 E-score.

In the case of CTAAGCCA, the binding signal is -0.209 E-score. With CGTTTGAC the figure was 0.0285 E-score; with AATACCTG, 0.178 E-score.

Turning to CGTTATCA, the binding signal was -0.0312 E-score. The same measure for GGTTTATA: 0.141 E-score; for GCCCGTCC: -0.149 E-score; for CGGACATA: 0.127 E-score. The same measure for ACGATCAT: 0.186 E-score; for TAGAGCCA: -0.186 E-score; for AAGAATAA: -0.149 E-score. On to ATGGACTA, for which the binding signal was -0.12 E-score. The same measure for AATACATT: -0.0234 E-score; for TACTTTGA: 0.00638 E-score. With AGTAAGGC, the binding signal is -0.137 E-score. As to CCATAGAC, the binding signal is -0.0293 E-score.

Turning to CCGTGGCG, the binding signal is -0.229 E-score. The same measure for GCCCACAA: -0.122 E-score; for GACGATAC: 0.453 E-score.

With CTTAACGA, the binding signal was -0.0417 E-score. The same measure for ATGATTCG: -0.0919 E-score. The same measure for GGCATCGA: -0.00137 E-score. The same measure for TCATCACA: -0.00938 E-score; for AGTTAGTA: -0.0927 E-score. Consider GTCTGCGA, for which the binding signal is -0.0682 E-score.

As for ACTACTTG, the binding signal was determined as 0.082 E-score. The same measure for CCTTGAAC: -0.154 E-score; for GGAGCTGA: -0.125 E-score. The same measure for AGCAAACC: -0.0737 E-score; for CAGTGTCG: 0.0157 E-score. With ATTGAGAC the figure was 0.212 E-score. GCGGGTCC: the binding signal is -0.0542 E-score. AGTTTTTC: the binding signal is -0.226 E-score. With CTTATCTA the figure was 0.0552 E-score; with GACTATCC, 0.297 E-score. As to CGGGGGCC, the binding signal was -0.141 E-score. Turning to ACGTGTTC, the binding signal was -0.128 E-score. The same measure for CTTTCATC: -0.146 E-score. The same measure for ACAGGGTC: 0.124 E-score. The same measure for GCGGCTGA: -0.068 E-score. Consider ATAGGGGG, for which the binding signal was 0.223 E-score. The same measure for GGGGTGAC: -0.23 E-score. With ATAGCACC the figure was 0.127 E-score. With AACAACGT the figure was -0.216 E-score. Turning to CTGATGGA, the binding signal was 0.0162 E-score. As for CGCGTGAA, the binding signal is 0.0307 E-score. The same measure for ACCCATCT: 0.204 E-score; for TCACGTGA: 0.0665 E-score; for ATCGGTAC: 0.162 E-score. The same measure for CCCCCGAC: 0.107 E-score.

GCGCTGCC: the binding signal is -0.227 E-score. In the case of CTTTACCA, the binding signal was -0.162 E-score. In the case of ACTTATAT, the binding signal is 0.144 E-score. With TAACAGGA the figure was -0.0464 E-score. As to AACTACTC, the binding signal turned out to be 0.0396 E-score. The same measure for ATCGCCAT: 0.186 E-score; for AATCTACA: 0.0915 E-score. ATATGCCG: the binding signal stood at 0.211 E-score. As for AGGTGCAC, the binding signal came to 0.0154 E-score. With CTGCTGAA the figure was -0.264 E-score; with GTAGGCAA, 0.0776 E-score; with GTAGCTAA, -0.0447 E-score. With ACGCTGAT the figure was 0.183 E-score; with AAACTACG, -0.0962 E-score.

With CCCACTCG, the binding signal is -0.154 E-score. Regarding AGCACTCG, the binding signal is -0.0927 E-score. With ACCAAACA the figure was 0.0783 E-score; with GGTAGGGA, 0.0948 E-score; with AGGCGACC, -0.155 E-score.
